94 sequences from paper PMC6212790 can be followed below.

This is one part of the list. At the low end of the ranking the order means little.

This test concerns the target T1, GST-Rok-C97-191 (UniProt O34857).
T1 sequence: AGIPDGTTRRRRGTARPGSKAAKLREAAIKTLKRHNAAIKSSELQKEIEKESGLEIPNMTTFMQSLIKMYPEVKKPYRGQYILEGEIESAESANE
Description: protein binding microarray.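 Further: rank score from −0.5 (least bound) to 0.5 (best bound).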 The following applies: Rok is a gene silencer of Bacillus subtilis; high values mean tight binding; most listed sequences are background and not binding sites; double strand, one strand shown.
On to AAGGTTCA, for which the binding signal was -0.138 E-score.
Then CAGTCACC, with -0.186 E-score; and AAGACGTG, with -0.173 E-score; and GGGAAGAC, with -0.241 E-score.
The value for CCTCTGAC was -0.206 E-score; that for AGGTATGG was -0.117 E-score; that for CACGCCCG was -0.284 E-score.
Then AGGCAGCG, with -0.107 E-score; and ACATACAA, with 0.288 E-score.
In turn, ATATGCGC came in with a binding signal of 0.205 E-score.
The value for CGCTTCCC was -0.174 E-score.
In turn, CCCTAATA gave a binding signal of -0.128 E-score.
Then CGCATCAA, with -0.109 E-score.
Then AAAGTCCT, with -0.0609 E-score.
Then AATCTCCA, with 0.0949 E-score.
For the sequence AAGCAGAA, the binding signal turned out to be 0.172 E-score.
Then AGTAAACA, with 0.0358 E-score; and CCGGTACC, with -0.00258 E-score; and CAAGTGTC, with -0.101 E-score.
Then TTCACGAA, with 0.136 E-score; and CCTCTTAA, with -0.103 E-score; and ACCCCAAA, with -0.0824 E-score.
Then CCACGTCG, with -0.171 E-score; and AGATAAGG, with 0.0143 E-score.
Take TACGTAAA: the binding signal was determined as 0.235 E-score.
In the case of CAGATCTG, the binding signal is -0.169 E-score.
For ACCCGAAT, the binding signal is 0.00906 E-score.
The value for AAAATTGC was 0.176 E-score.
The value for AACAAGCG was -0.00832 E-score; that for TCACGTAA was -0.0226 E-score; that for CCTTTTCA was -0.0956 E-score.
Then CGTTTCAA, with -0.0393 E-score.
Sequence ATCCAGTG returned a binding signal of -0.118 E-score.
Then CGTTAGGC, with -0.121 E-score; and TATTCCAA, with 0.0785 E-score; and GTTGAGAA, with 0.114 E-score.
Then GGTAACGA, with 0.0496 E-score.
The value for CACACCTC was -0.0614 E-score.
The sequence CTGGTTAC returned a binding signal of 0.0826 E-score.
The value for ATCGTCCG was -0.127 E-score.
Sequence TAGCGTGA yielded a binding signal of 0.00384 E-score.
AGTTCTCG yielded a binding signal of 0.0661 E-score.
The value for CCGTTGCG was -0.23 E-score; that for CAAGGCGA was -0.256 E-score.
Turning to GGGTTACA, the binding signal is -0.0771 E-score.
The value for ATGTGCCC was -0.0332 E-score; that for GAACGTAC was 0.0605 E-score; that for ACCCGCTG was -0.313 E-score.
In the case of CTTTTTTA, the binding signal was -0.151 E-score.
Then TAATGTCA, with 0.0998 E-score; and CATTATCA, with 0.288 E-score; and CCGTCGAC, with -0.189 E-score.
The value for ATCCACAG was -0.0767 E-score; that for AGAATACA was 0.191 E-score; that for ACTTAAGG was 0.0365 E-score.
Then CTCAGAGC, with -0.0822 E-score.
CCACTCTC gave a binding signal of -0.129 E-score.
The value for GCGGTTAA was 0.123 E-score; that for CGCGCCCA was -0.263 E-score; that for TATGCACA was 0.112 E-score.
Then CTTTGACC, with 0.0127 E-score; and GCCGCTAA, with 0.0977 E-score; and CCACCTCG, with -0.108 E-score.
Then GAGAGTAC, with 0.0998 E-score.
Regarding CTGCGTCC, the binding signal was -0.338 E-score.
Turning to AATCGTGG, the binding signal amounted to 0.0422 E-score.
Then CTACTCTC, with -0.131 E-score.
Then ACTTGCTG, with 0.12 E-score; and ATGCACCA, with 0.109 E-score.
In turn, GCAGCATA came in with a binding signal of -0.0778 E-score.
The value for ACAGCAGT was -0.122 E-score; that for AAGTAGCA was 0.259 E-score.
Then AAATTACG, with 0.273 E-score; and ACACCAAT, with -0.0322 E-score; and GTCCGGGA, with -0.213 E-score.
Then ACTCGGCT, with 0.00974 E-score; and AAACATAT, with 0.276 E-score.
With CGTAACCA, the binding signal is -0.225 E-score.
ACCCTATA displayed a binding signal of 0.153 E-score.
As to CCACTACA, the binding signal came to 0.0923 E-score.
Then GGCGCGCA, with -0.241 E-score; and ATGGCTGA, with 0.0806 E-score; and GGGTATAC, with 0.00875 E-score.
ATGCACTG: the binding signal is -0.0611 E-score.
Then GGCTTTTA, with -0.0516 E-score; and ACTCTCTG, with -0.0614 E-score; and AAAAAAGG, with 0.0308 E-score.
Then ACGTACCT, with -0.00878 E-score; and TCAGTCGA, with -0.0223 E-score; and AGTTCCCG, with -0.0164 E-score.
The value for AGAGTTGA was -0.0835 E-score.
Sequence AAAACCTT had a binding signal of -0.0438 E-score.
Then AAGGGTAA, with 0.183 E-score; and AAAATTCT, with 0.129 E-score.
